# Among all 150,000 compounds or so, about 540 (0.36%) showed an effect of 50% or more. The list shows a part of the results.
# Test system: Plasmodium falciparum
# Assay: Primary screen in NF54 nanoGlo assay, in single point, at 2uM, 72h; a lower Z score goes with more inhibition
# Format: functional, Erythrocyte
# Settings: timepoint 72 hour
SMILES,% Inhibition,Z score
CN(CC(O)C(F)(F)F)C(=O)NC1CC2CCCc3cccc1c32 (stereo unspecified),-10%,0.86
COC(=O)c1ccc([C@H]2CC(=O)Nc3ncn(-c4cccc(OC)c4)c32)cc1,1%,-0.08
Cc1noc(C)c1Cc1ccc(C(=O)N2C[C@@H](Oc3cccnc3)C[C@H]2C(N)=O)o1,10%,-1.26
COc1cccc(C(=O)N2CCC(Nc3cccc(C)n3)CC2)c1F,-15%,1.53
CC(C)C(=O)N1CCCC[C@H]1C(=O)Nc1sc2c(c1C#N)CCCC2,-8%,1.23
Cc1oc(CNC(=O)c2ccccc2Cl)nc1C(=O)N1CCC(C)CC1,-1%,0.18
CCc1nc2c(C(=O)N3CCOc4c(C)cc(C)cc43)ccnc2[nH]1,71%,-10.67
Cc1cnc(NC(=O)CC2(N3Cc4ccccc4C3=O)CCOCC2)s1,-18%,2.24
Cc1csc2c(N3CCCn4nc(CCC(=O)O)cc4C3)ncnc12,-5%,0.91
O=C(N1CC(Cc2ccsc2)C1)[C@@]12CCC[C@@H]1C2,-6%,0.61
CCC(=O)N[C@@H](CNC(=O)OC(C)(C)C)C1CC1,-4%,0.48
COc1ccccc1OCCOc1cc(C)n(C)n1,-19%,1.91
O=S(=O)(N1CCCCCC1)N1CCOc2ccccc2C1,-13%,1.53
CCOc1ncccc1C(=O)Nc1ccn(CCCN2CCCC2)n1,-14%,2.3
CC(C)(C)[C@@H](CO)NCc1cncs1,-12%,1.52
Cc1ccc(C(=O)Nc2nnc(-c3cccnc3)o2)cc1C,-7%,1.12
Cc1nc(NC(=O)N[C@H]2COC[C@H]2n2ccnn2)nn1C,-10%,1.61
CNC(=O)c1cc(Br)cnc1NC,34%,-0.98
COc1cccc2c1[C@H](C(=O)Nc1c[nH]nn1)CC2,-7%,0.93
Cc1cc(=O)n2c3c(cc(S(=O)(=O)NCCOc4ccccc4)cc13)CCC2,-7%,0.84
Cc1csc(S(=O)(=O)NC[C@H]2CN(C)CCN2C)c1,-9%,1.77
CC(C)(C(=O)N1CCC(c2ccsc2)CC1)c1c[nH]cn1,-1%,0.13

SMILES,% Inhibition,Z score
O=S(=O)(NC1CCCC1)c1ccc2c(c1)-c1oncc1CO2,-6%,0.88
O=C(CCn1cccn1)N1CCCC[C@@H]1CCc1ccc(O)cc1,-3%,0.27
O=C(Cn1c(=O)cnc2cc(S(=O)(=O)N3CCCCC3)ccc21)Nc1ccc2c(c1)OCCO2,3%,-0.26
CC(C)(O)C1CCCN1C(=O)NC1CCCCC1n1cccn1 (stereo unspecified),-3%,0.27
O=C(C[C@H]1CCCOC1)N1CCC(Oc2cccc(Cl)c2)CC1,-8%,1.29
COC[C@H]1CCCN(c2nnc(-c3scnc3C)n2CC(C)C)C1,-8%,1.19
CCCN(C(=O)Cc1n[nH]c(=O)[nH]1)[C@H]1CCCC[C@@H]1O,-9%,1.25
CC(C)(C)NC(=O)NCC[C@H](O)c1cccc(Cl)c1,-10%,1.33
Cc1[nH]c(=O)c(C#N)c(C)c1CCC(=O)Nc1ccc2c(c1)OCO2,1%,-0.14
CC(CNC(=O)NC1CCCCC1O)Cc1cccs1 (stereo unspecified),-4%,0.56
Cc1cccc(-c2ncccc2CNC(=O)c2ccc3c(c2)OCO3)c1,-2%,0.25
COC[C@H]1CCCN(S(=O)(=O)N2CCCCCCC2)C1,-5%,0.71
CCN(Cc1nnc(C)o1)c1ccccc1,-7%,0.73
O=C([C@@H]1CCCCN1C(=O)CC1(O)CCCC1)N1CCOCC1,0%,0.06
O=C(NCCCn1ccnn1)N[C@H]1CCOc2c(F)cccc21,11%,-1.13
NC(=O)c1ccccc1NC(=O)CCN1CCN(c2ncccn2)CC1,-8%,1.49
CCNC(=O)N1CC(C(=O)N2CCN(c3ccccc3F)CC2)CCC1c1ccc(F)c(C)c1 (stereo unspecified),-7%,0.98
C#Cc1cccc(NC(=O)CCc2cccc(N(C)C)c2)c1,0%,0.07
N#Cc1ccc(NC(=O)O[C@H]2COCCN(c3nc4ccccc4o3)C2)cc1,0%,-0.04
COc1ccccc1[C@H](CC(C)C)NCC#N,-9%,1.39
C[C@H](NCC(=O)Nc1ccc2c(c1)OC1(CCCCC1)O2)c1cccs1,-9%,1.57

# — ChEMBL document CHEMBL4888484, “Replenishing the malaria drug discovery pipeline: Screening and hit evaluation of the MMV Hit Generation Library 1 (HGL1) against asexual blood stage Plasmodium falciparum ,using a nano luciferase reporter read-out” (2022)
